From the supplement of paper PMC8728848
The list shows a part of the results.

Key:
Test in all cases: glycan array binding signal (z-score within array); higher = stronger binding
Details in all cases: glycan notation: IUPAC condensed, linker removed
[1] = target: Man(a1-2)Man(a1-3)[Man(a1-2)Man(a1-6)]Man(a1-6)[Man(a1-2)Man(a1-2)Man(a1-3)]Man
Summary of the method: (§1)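 The binding signal is a Z-score computed within each array. Data were drawn from 3228 arrays in the Consortium for Functional Glycomics database, restricted to those with a known protein sequence. Scores were averaged over arrays of the same protein sequence at different concentrations or buffers, and over linkers, and negative values can be taken as non-binding.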

[2] = target: Man(a1-2)Man(a1-3)[Man(a1-2)Man(a1-6)]Man(a1-6)[Man(a1-2)Man(a1-2)Man(a1-3)]Man(b1-4)GlcNAc(b1-4)GlcNAc
Summary of the method: as §1

[3] = target: Man(a1-2)Man(a1-3)[Man(a1-6)]Man(a1-6)[Man(a1-2)Man(a1-3)]Man(b1-4)GlcNAc(b1-4)GlcNAc
Summary of the method: as §1

[4] = target: Man(a1-2)Man(a1-6)[Man(a1-3)]Man(a1-6)[Man(a1-2)Man(a1-2)Man(a1-3)]Man
Summary of the method: as §1

[5] = target: Man(a1-2)Man(a1-6)[Man(a1-3)]Man(a1-6)[Man(a1-2)Man(a1-2)Man(a1-3)]Man(b1-4)GlcNAc(b1-4)GlcNAc
Summary of the method: as §1

Man(a1-3)[Man(a1-6)]Man = target: Man(a1-3)[Man(a1-6)]Man
Summary of the method: as §1

[6] = target: Man(a1-3)[Man(a1-6)]Man(a1-6)[Man(a1-2)Man(a1-3)]Man(b1-4)GlcNAc(b1-4)GlcNAc
Summary of the method: as §1

[7] = target: Man(a1-3)[Man(a1-6)]Man(a1-6)[Man(a1-3)]Man
Summary of the method: as §1

[8] = target: Man(a1-3)[Man(a1-6)]Man(a1-6)[Man(a1-3)]Man(b1-4)GlcNAc(b1-4)GlcNAc
Summary of the method: as §1

[9] = target: Man(a1-3)[Man(a1-6)]Man(b1-4)GlcNAc(b1-4)GlcNAc
Summary of the method: as §1

[10] = target: Man(a1-3)[Man(a1-6)]Man(b1-4)GlcNAc(b1-4)[Fuc(a1-6)]GlcNAc
Summary of the method: as §1

Man(a1-6)Man = target: Man(a1-6)Man
Summary of the method: as §1

Man(b1-4)GlcNAc = target: Man(b1-4)GlcNAc
Summary of the method: as §1

MurNAc(b1-4)GlcNAc = target: MurNAc(b1-4)GlcNAc
Summary of the method: as §1

Neu5Ac(a2-3)Gal = target: Neu5Ac(a2-3)Gal
Summary of the method: as §1

[11] = target: Neu5Ac(a2-3)Gal(b1-3)GalNAc
Summary of the method: as §1

[12] = target: Neu5Ac(a2-3)Gal(b1-3)GalNAc(b1-3)Gal(a1-4)Gal(b1-4)Glc
Summary of the method: as §1

[13] = target: Neu5Ac(a2-3)Gal(b1-3)GalNAc(b1-4)Gal(b1-4)Glc
Summary of the method: as §1

[14] = target: Neu5Ac(a2-3)Gal(b1-3)GalNAc(b1-4)[Neu5Ac(a2-3)]Gal(b1-4)Glc
Summary of the method: as §1

[15] = target: Neu5Ac(a2-3)Gal(b1-3)GalNAc(b1-4)[Neu5Ac(a2-8)Neu5Ac(a2-3)]Gal(b1-4)Glc
Summary of the method: as §1

[16] = target: Neu5Ac(a2-3)Gal(b1-3)GalNAc6S
Summary of the method: as §1

[17] = target: Neu5Ac(a2-3)Gal(b1-3)GlcNAc
Summary of the method: as §1

[18] = target: Neu5Ac(a2-3)Gal(b1-3)GlcNAc(b1-2)Man
Summary of the method: as §1

[19] = target: Neu5Ac(a2-3)Gal(b1-3)GlcNAc(b1-2)Man(a1-3)[GlcNAc(b1-4)][Neu5Ac(a2-3)Gal(b1-3)GlcNAc(b1-2)Man(a1-6)]Man(b1-4)GlcNAc(b1-4)GlcNAc
Summary of the method: as §1

[20] = target: Neu5Ac(a2-3)Gal(b1-3)GlcNAc(b1-2)Man(a1-3)[Neu5Ac(a2-3)Gal(b1-3)GlcNAc(b1-2)Man(a1-6)]Man(b1-4)GlcNAc(b1-4)GlcNAc
Summary of the method: as §1

[21] = target: Neu5Ac(a2-3)Gal(b1-3)GlcNAc(b1-2)[Neu5Ac(a2-3)Gal(b1-3)GlcNAc(b1-4)]Man(a1-6)[Neu5Ac(a2-3)Gal(b1-3)GlcNAc(b1-2)Man(a1-3)]Man(b1-4)GlcNAc(b1-4)GlcNAc
Summary of the method: as §1

[22] = target: Neu5Ac(a2-3)Gal(b1-3)GlcNAc(b1-3)Gal(b1-3)GlcNAc
Summary of the method: as §1

[23] = target: Neu5Ac(a2-3)Gal(b1-3)GlcNAc(b1-3)Gal(b1-4)GlcNAc
Summary of the method: as §1

[24] = target: Neu5Ac(a2-3)Gal(b1-3)GlcNAc(b1-3)GalNAc
Summary of the method: as §1

[25] = target: Neu5Ac(a2-3)Gal(b1-3)GlcNAc(b1-6)GalNAc
Summary of the method: as §1

[26] = target: Neu5Ac(a2-3)Gal(b1-3)GlcNAc6S
Summary of the method: as §1

[27] = target: Neu5Ac(a2-3)Gal(b1-3)[Fuc(a1-4)]GlcNAc
Summary of the method: as §1

[28] = target: Neu5Ac(a2-3)Gal(b1-3)[Fuc(a1-4)]GlcNAc(b1-3)Gal(b1-3)[Fuc(a1-4)]GlcNAc
Summary of the method: as §1

[29] = target: Neu5Ac(a2-3)Gal(b1-3)[Fuc(a1-4)]GlcNAc(b1-3)Gal(b1-4)[Fuc(a1-3)]GlcNAc
Summary of the method: as §1

[30] = target: Neu5Ac(a2-3)Gal(b1-3)[GlcNAc(b1-6)]GalNAc
Summary of the method: as §1

[31] = target: Neu5Ac(a2-3)Gal(b1-3)[Neu5Ac(a2-6)]GalNAc
Summary of the method: as §1

[32] = target: Neu5Ac(a2-3)Gal(b1-3)[Neu5Ac(a2-6)]GlcNAc(b1-3)[Fuc(a1-3)[Gal(b1-4)]GlcNAc(b1-6)]Gal(b1-4)Glc
Summary of the method: as §1

[33] = target: Neu5Ac(a2-3)Gal(b1-3)]Neu5Ac(a2-3)Gal(b1-4)]GlcNAc
Summary of the method: as §1

Neu5Ac(a2-3)Gal(b1-4)Glc = target: Neu5Ac(a2-3)Gal(b1-4)Glc
Summary of the method: as §1

[34] = target: Neu5Ac(a2-3)Gal(b1-4)GlcNAc
Summary of the method: as §1

[35] = target: Neu5Ac(a2-3)Gal(b1-4)GlcNAc(b1-2)Man
Summary of the method: as §1

[36] = target: Neu5Ac(a2-3)Gal(b1-4)GlcNAc(b1-2)Man(a1-3)[GlcNAc(b1-4)][Neu5Ac(a2-3)Gal(b1-4)GlcNAc(b1-2)Man(a1-6)]Man(b1-4)GlcNAc(b1-4)GlcNAc
Summary of the method: as §1

[37] = target: Neu5Ac(a2-3)Gal(b1-4)GlcNAc(b1-2)Man(a1-3)[Neu5Ac(a2-3)Gal(b1-4)GlcNAc(b1-2)Man(a1-6)]Man(b1-4)GlcNAc(b1-4)GlcNAc
Summary of the method: as §1

[38] = target: Neu5Ac(a2-3)Gal(b1-4)GlcNAc(b1-2)Man(a1-3)[Neu5Ac(a2-3)Gal(b1-4)GlcNAc(b1-2)Man(a1-6)]Man(b1-4)GlcNAc(b1-4)[Fuc(a1-6)]GlcNAc
Summary of the method: as §1

[39] = target: Neu5Ac(a2-3)Gal(b1-4)GlcNAc(b1-2)Man(a1-3)[Neu5Ac(a2-6)Gal(b1-4)GlcNAc(b1-2)Man(a1-6)]Man(b1-4)GlcNAc(b1-4)GlcNAc
Summary of the method: as §1

B1: DrGRIFIN (Danio rerio), Q6DGJ1 (protein)
chain: MTLRFEASCPDGLCPGWSVILKGETPPEASKFEINFLCDRDDRVAFHFNPRFTESDIICNSYMANRWGQEERCNHFPLGVEEPFQIEIYSDNDHFHVYIDKAKVMQYKHRVEDLKTITKLQVVNDVKISSLEITKKLFY
[1]
  glycan array binding signal (z-score): -0.188
[2]
  glycan array binding signal (z-score): -0.153
[3]
  glycan array binding signal (z-score): -0.15
[4]
  glycan array binding signal (z-score): -0.123
[5]
  glycan array binding signal (z-score): -0.15
Man(a1-3)[Man(a1-6)]Man
  glycan array binding signal (z-score): -0.172
[6]
  glycan array binding signal (z-score): -0.189
[7]
  glycan array binding signal (z-score): -0.187
[8]
  glycan array binding signal (z-score): -0.195
[9]
  glycan array binding signal (z-score): -0.171
[10]
  glycan array binding signal (z-score): -0.185
Man(a1-6)Man
  glycan array binding signal (z-score): -0.192
Man(b1-4)GlcNAc
  glycan array binding signal (z-score): -0.172
MurNAc(b1-4)GlcNAc
  glycan array binding signal (z-score): -0.068
Neu5Ac(a2-3)Gal
  glycan array binding signal (z-score): -0.134
[11]
  glycan array binding signal (z-score): -0.198
[12]
  glycan array binding signal (z-score): -0.212
[13]
  glycan array binding signal (z-score): -0.122
[14]
  glycan array binding signal (z-score): -0.189
[15]
  glycan array binding signal (z-score): -0.167
[16]
  glycan array binding signal (z-score): -0.194
[17]
  glycan array binding signal (z-score): -0.121
[18]
  glycan array binding signal (z-score): -0.165
[19]
  glycan array binding signal (z-score): -0.143
[20]
  glycan array binding signal (z-score): -0.169
[21]
  glycan array binding signal (z-score): -0.215
[22]
  glycan array binding signal (z-score): -0.131
[23]
  glycan array binding signal (z-score): -0.166
[24]
  glycan array binding signal (z-score): -0.117
[25]
  glycan array binding signal (z-score): -0.171
[26]
  glycan array binding signal (z-score): -0.137
[27]
  glycan array binding signal (z-score): -0.149
[28]
  glycan array binding signal (z-score): -0.179
[29]
  glycan array binding signal (z-score): -0.229
[30]
  glycan array binding signal (z-score): -0.182
[31]
  glycan array binding signal (z-score): -0.164
[32]
  glycan array binding signal (z-score): -0.18
[33]
  glycan array binding signal (z-score): -0.072
Neu5Ac(a2-3)Gal(b1-4)Glc
  glycan array binding signal (z-score): -0.199
[34]
  glycan array binding signal (z-score): -0.203
[35]
  glycan array binding signal (z-score): -0.16
[36]
  glycan array binding signal (z-score): -0.086
[37]
  glycan array binding signal (z-score): -0.141
[38]
  glycan array binding signal (z-score): -0.164
[39]
  glycan array binding signal (z-score): -0.211
